# Among all 310,000 compounds or so, about 2,200 (0.71%) showed an effect of 50% or more. The effect is printed as a negative number. The list shows a part of the results.
# Target: human ether-à-go-go-related gene (hERG) potassium channel (human, UniProt Q12809)
# Assay: primary screen, population patch clamp on CHO cells stably expressing hERG
# Chain of human ether-à-go-go-related gene (hERG) potassium channel (Q12809 whole entry, looked up): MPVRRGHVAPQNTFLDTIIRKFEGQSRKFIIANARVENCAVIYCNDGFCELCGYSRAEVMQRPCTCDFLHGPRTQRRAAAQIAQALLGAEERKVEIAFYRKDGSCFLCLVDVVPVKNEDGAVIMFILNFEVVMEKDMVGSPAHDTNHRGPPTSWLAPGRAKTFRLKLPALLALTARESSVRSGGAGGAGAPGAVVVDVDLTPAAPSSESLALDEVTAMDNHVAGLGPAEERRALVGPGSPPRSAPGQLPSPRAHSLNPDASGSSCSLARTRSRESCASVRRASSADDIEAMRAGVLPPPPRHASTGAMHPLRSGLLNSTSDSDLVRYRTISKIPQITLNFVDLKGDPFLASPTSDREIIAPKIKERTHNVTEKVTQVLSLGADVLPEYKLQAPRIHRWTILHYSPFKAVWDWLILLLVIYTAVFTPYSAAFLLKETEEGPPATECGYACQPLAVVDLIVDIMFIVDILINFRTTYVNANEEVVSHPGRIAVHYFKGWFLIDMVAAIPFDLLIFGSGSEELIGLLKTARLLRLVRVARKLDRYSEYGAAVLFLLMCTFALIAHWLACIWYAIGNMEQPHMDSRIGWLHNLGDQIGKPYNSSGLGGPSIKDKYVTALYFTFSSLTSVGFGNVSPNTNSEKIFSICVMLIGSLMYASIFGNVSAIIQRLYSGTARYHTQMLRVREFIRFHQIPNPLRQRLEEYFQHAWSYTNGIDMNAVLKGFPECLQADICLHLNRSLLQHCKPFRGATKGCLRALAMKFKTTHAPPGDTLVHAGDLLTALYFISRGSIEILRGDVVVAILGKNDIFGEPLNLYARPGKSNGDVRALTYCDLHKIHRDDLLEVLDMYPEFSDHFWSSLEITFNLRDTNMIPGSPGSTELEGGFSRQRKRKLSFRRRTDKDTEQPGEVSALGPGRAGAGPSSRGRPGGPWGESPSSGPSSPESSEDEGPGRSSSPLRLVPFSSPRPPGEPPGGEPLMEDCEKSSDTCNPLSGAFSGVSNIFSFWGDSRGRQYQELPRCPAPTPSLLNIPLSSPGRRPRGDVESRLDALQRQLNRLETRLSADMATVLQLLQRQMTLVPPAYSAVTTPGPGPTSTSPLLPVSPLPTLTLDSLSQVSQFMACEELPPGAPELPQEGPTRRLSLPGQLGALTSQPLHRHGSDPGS
row,SMILES,"hERG current change (%, negative = inhibition) at 1uM"
1,CC1(C)OCC(C2CC(c3ccccc3)NS(=O)(=O)O2)O1 (stereo not drawn),21.3%
2,COc1ccc(-c2c(C#N)c(N)nc3c2CCCC3)cc1OC,13.6%
3,Cc1ccc(S(=O)(=O)NNC(=O)c2sc(=S)n(C)c2C)cc1,16.2%
4,COc1cc(OC)c(N(C)C(=O)c2cn(C)c(=O)c3cc(OC)c(OC)cc23)cc1Cl,1.96%
5,N#Cc1ccc(NC(=O)c2cccs2)nc1,13%
6,O=C(COC(=O)c1ccccn1)Nc1ccccc1Cl,4.54%
7,COc1ccc(N2CCN(C(CNC(=O)C(=O)NCc3cccnc3)c3ccco3)CC2)cc1 (stereo not drawn),10.6%
8,O=C(COc1ccccc1Cl)N1CCN(c2ccccn2)CC1,10.4%
9,CCCOc1c(OC)cc(Cl)cc1C1NC(=O)NC(C)=C1C(=O)NCc1ccccc1 (stereo not drawn),0.861%
10,Cc1cccc(Cn2c(N3CCN(CCO)CC3)nc3c2c(=O)[nH]c(=O)n3C)c1,7.07%
11,CCOC(=O)N1CCC(NC(=O)c2cc(C(=O)NCC(OC)OC)ccc2CO)CC1,10.5%
12,Cc1ccc(NC(=O)CN(C)C(=O)CSc2nnc(N)s2)cc1,6.57%
13,CC(C)CCNC(=S)Nc1ccc(Br)cc1,-0.33%
14,Cc1ccc(OCC(=O)NC2CCCCCC2)cc1C,15.4%
15,O=C1c2ccccc2C(=O)N1Cc1nc2ccccc2c(=O)n1-c1cccnc1,2.33%
16,CCOC(=O)c1nc2sc3c(c2c(=O)[nH]1)CCCC3,9.77%
17,C=CCNC(=S)N/N=C1\CCS(=O)(=O)c2ccccc21,1.73%
18,Cc1ccc(Nc2nc(=O)c3cccnc3s2)cc1,2.37%
19,Cc1cc(/C=C2\NC(=O)N(Cc3ccc(Cl)cc3)C2=O)c(C)n1C,4.87%
20,NC(=O)c1cccc2c3c([nH]c12)CCCC3,5.66%
21,COc1ccc(-n2ncc3c(N4CCN(c5cccc(C)c5C)CC4)ncnc32)cc1,15.3%
22,CCC1(CC)Cc2ccccc2-c2nc(NN)[nH]c(=O)c21,14%
23,C=CCN(Cc1cccc(OC)c1OC)S(=O)(=O)N(C)C,1.71%

row,SMILES,"hERG current change (%, negative = inhibition) at 1uM"
1,CCN(CC)CCSc1nc(O)c(Cc2ccccc2)c(=O)n1-c1ccccc1.Cl,6.98%
2,Cc1ccc(S(=O)(=O)Nc2ccc3c(c2)c2c(n3S(=O)(=O)c3ccc(C)cc3)CCCC2=O)cc1,-2.75%
3,COC(=O)c1ccc(Cl)c(-c2ccc(/C=N/NC(=O)Nc3ccccc3)o2)c1,15.1%
4,O=C(Nc1cccc(Cl)c1)c1ccccc1,7.21%
5,CS/C(=C(/C#N)S(=O)(=O)c1ccc(Cl)cc1)N1CCOCC1,8.95%
6,CCCC(=N)C1=C(O)CC(CC(C)SCC)CC1=O (stereo not drawn),-6.51%
7,CC(c1ccon1)N(C)Cc1cn[nH]c1-c1ccc(F)cc1F (stereo not drawn),5.05%
8,O=C(c1cc(S(=O)(=O)N2CCOCC2)ccc1Cl)N1CCOCC1,8.34%
9,Cc1nn(C)c(Oc2ccccc2)c1CCNS(=O)(=O)c1ccccc1,8.2%
10,COc1ccc(CSc2nc3ccccc3c(=O)[nH]2)cc1F,21.2%
11,Cc1ccc(CNC(=O)CN(C)S(=O)(=O)c2cccs2)cc1,10.3%
12,CCCOc1ccc(N2C(=O)CC(N(Cc3ccco3)C(=O)CCC(=O)O)C2=O)cc1 (stereo not drawn),13.4%
13,Cc1nnc(SCC(=O)NCc2ccc3c(c2)OCO3)n1C,15.5%
14,Cc1ccc(NC(=O)c2cc(-c3cc(Cl)ccc3O)n[nH]2)cc1C,18.2%
15,COCCN(Cc1cc2cc3c(cc2nc1Cl)OCO3)C(=O)c1cccc(C)c1,10.1%
16,CCn1c(=O)c(C(=O)Nc2ccc(C)cc2)c(O)c2ccccc21,15.8%
17,CCOc1ccc(N(C)C(=O)CCc2nnc3ccc(N4CCCCC4)nn23)cc1,11.8%
18,c1ccc2c(c1)-c1cccc3c1c-2cc1ccccc13,9.53%
19,Cn1nnnc1SCC(=O)NCc1ccc2c(c1)OCO2,13%
20,CCOC(=O)c1nn(-c2ccc([N+](=O)[O-])cc2)cc1O,4.72%
21,O=C(Nc1ccccc1F)C1CCN(S(=O)(=O)c2cccc3nonc23)CC1,8.37%
22,COC(=O)NC(=S)Nc1ccc(Oc2ccc(Cl)cc2)c(Cl)c1,15.4%
23,CCCN(CC(=O)Nc1ccccc1OC)C(=O)CC1CCCC1,11.7%

row,SMILES,"hERG current change (%, negative = inhibition) at 1uM"
1,COc1ccc(N2CCN(C(CNC(=O)Oc3ccccc3)c3cccnc3)CC2)cc1 (stereo not drawn),3.3%
2,COC(=O)c1ccccc1NC(=O)COC(=O)[C@H](C)NC(N)=O,12.1%
3,FC(F)(F)C1=CC(c2ccc(Br)cc2)=NCCN1,-3.26%
4,Cc1cccc(/C=C2\Sc3ccc(C(=O)N4CCCCC4)cc3N(C)C2=O)c1,16.4%
5,Cc1oc(-c2ccccc2Cl)nc1CS(=O)CC(=O)NCCc1ccccc1 (stereo not drawn),18.5%
6,CN(c1ccc(OCC(=O)OCC(=O)NC2CCCC2)cc1)S(=O)(=O)c1ccc2ccccc2c1,7.57%
7,Cc1ccc(NC(=O)C(c2ccccc2)c2ccccc2)c(O)c1,8.61%
8,COc1cccc(C(=O)Nc2cccc(OCC(=O)c3ccccc3)c2)c1,15.4%
9,COc1ccc(N2CCN(c3ccnc4cc(Cl)ccc34)CC2)cc1,-4.76%
10,CC(C)CN(CC(C)C)c1nc(N)c(C#N)c(CC#N)c1C#N,-0.539%
11,CCCn1c(C)cc(C(=O)COc2ccc(-c3nnco3)cc2)c1C,-8.86%
12,CC1CCN(C(=O)CSc2nc(=O)n3ccccc3n2)CC1,16.4%
13,O=C(N/N=C/c1cccc(OC2CSC2)c1)c1ccccc1O,6.98%
14,CC(=O)NCC(=O)N(Cc1ccco1)C1(C(=O)NC2CCCCC2)CCCCC1,3.67%
15,COc1cc(NC(=O)c2ccno2)cc(C(=O)Nc2cccc(C(F)(F)F)c2)c1,11.9%
16,COc1cc([N+](=O)[O-])ccc1NC(=O)NCCCN1CCCC1=O,13.6%
17,C=CCNC(=O)C1CC(=O)N(c2ccc(OCC(=O)Nc3ccc(C)cc3)cc2)C1 (stereo not drawn),-2.13%
18,COc1ccc(CNC(=O)C2CCN(S(=O)(=O)c3ccc4nc5c(c(C(=O)O)c4c3)CC(C)CC5)CC2)cc1 (stereo not drawn),17.6%
19,Cn1c(CCC(=O)Nc2cc(S(C)(=O)=O)ccc2Cl)nc2cc(S(=O)(=O)N3CCOCC3)ccc21,-12.8%
20,CC(C)[C@H](NC(=O)C1CC(=O)N(c2ccc3c(c2)OCO3)C1)C(=O)NC1CCCC1 (stereo partly drawn),8.54%
21,COc1cc(C(=O)NC2=NCCS2)cc(OC)c1OC,7.19%
22,COc1ccc(C2=NOC3(CC(=O)N(c4ccc(C)cc4)C3=O)C2)c(OC)c1 (stereo not drawn),7.87%
23,Cc1ccc(NC2=C(N3CCOCC3)C(=O)c3ccccc3C2=O)cc1,4.37%

row,SMILES,"hERG current change (%, negative = inhibition) at 1uM"
1,CCOc1ccccc1/C=N/NC(=O)c1cccc(S(=O)(=O)N2CCOCC2)c1,4.19%
2,O=C1CC(NCc2cccs2)C(=O)N1c1ccc(Cl)cc1 (stereo not drawn),1.41%
3,Cc1ccn2cc(-c3cccc(NS(C)(=O)=O)c3)nc2c1,4.5%
4,Cc1cc(=O)oc2cc(NC(=O)C(C)Oc3ccccc3)ccc12 (stereo not drawn),18.8%
5,Cc1c(NC(=O)C(C)OC(=O)CCC2CCCC2)c(=O)n(-c2ccccc2)n1C (stereo not drawn),5.81%
6,COc1cc(N2C(=O)c3ccccc3C2=O)c(Cl)cc1C(=O)OCC(=O)N1CCOCC1,8.96%
7,Cc1cccc(C)c1NC(=O)CNC(=O)C1CC(=O)N(Cc2ccccc2)C1 (stereo not drawn),7.66%
8,O=c1oc(-c2ccc(F)cc2)nc2ccsc12,13.2%
9,COc1ccccc1N1CCN(CCCC(=O)c2ccc(F)cc2)CC1,-43.2%
10,CCc1cccc2c(=O)c(C(=O)NCCCOC)c[nH]c12,17%
11,Cc1cccc(C2N(c3nccs3)C(=O)C3CCCN32)c1 (stereo not drawn),3.77%
12,O=C(Oc1ccc2c(-c3ccccc3)cc(=O)oc2c1)c1cccs1,16.7%
13,CCN(CCn1cccn1)C(=O)CCc1nnc(C2CCCCC2)o1,5.25%
14,COc1cccc(C(=O)NNC2=CC(=O)CC(C)(C)C2)c1,0.873%
15,c1ccc2c(c1)CSc1ccccc1C2C1=NCCN1 (stereo not drawn),10.5%
16,O=C(CN(C1CC1)S(=O)(=O)c1ccc(S(=O)(=O)N2CCCCCC2)cc1)Nc1ccccc1,15.8%
17,Cc1ccccc1Cn1cc(S(=O)(=O)CC(=O)N2CCCCC2)c2ccccc21,8.8%
18,C(/C=C/c1ccccc1)=N/N1CCN(c2ccccc2)CC1,7.78%
19,O=C(NC1CC1)c1sc2cc(Cl)ccc2c1Cl,11.3%
20,Cc1c(C(=O)OC2CCCCC2)sc2nc[nH]c(=O)c12,16%
21,N#Cc1ccc(OCC(O)CN2CCN(C(c3ccccc3)c3ccccc3)CC2)cc1 (stereo not drawn),-69.5%

# From PMC4336329 (PLoS ONE, 2015)
